# Measurements taken from PMC6919601, “Identification of Plasmodium dipeptidyl aminopeptidase allosteric inhibitors by high throughput screening” (PLoS ONE, 2019).
# Where “and” joins values, the source holds several entries; their conditions need not be identical. Identical values can stand only once. The campaign covered roughly 110,000 compounds. About 230 (0.21%) showed an effect of 50% or more. The list shows a part of the results.
# Biological target: DPAP1 (Plasmodium falciparum, UniProt Q8IIJ9)
# Sequence (Q8IIJ9 whole entry, looked up): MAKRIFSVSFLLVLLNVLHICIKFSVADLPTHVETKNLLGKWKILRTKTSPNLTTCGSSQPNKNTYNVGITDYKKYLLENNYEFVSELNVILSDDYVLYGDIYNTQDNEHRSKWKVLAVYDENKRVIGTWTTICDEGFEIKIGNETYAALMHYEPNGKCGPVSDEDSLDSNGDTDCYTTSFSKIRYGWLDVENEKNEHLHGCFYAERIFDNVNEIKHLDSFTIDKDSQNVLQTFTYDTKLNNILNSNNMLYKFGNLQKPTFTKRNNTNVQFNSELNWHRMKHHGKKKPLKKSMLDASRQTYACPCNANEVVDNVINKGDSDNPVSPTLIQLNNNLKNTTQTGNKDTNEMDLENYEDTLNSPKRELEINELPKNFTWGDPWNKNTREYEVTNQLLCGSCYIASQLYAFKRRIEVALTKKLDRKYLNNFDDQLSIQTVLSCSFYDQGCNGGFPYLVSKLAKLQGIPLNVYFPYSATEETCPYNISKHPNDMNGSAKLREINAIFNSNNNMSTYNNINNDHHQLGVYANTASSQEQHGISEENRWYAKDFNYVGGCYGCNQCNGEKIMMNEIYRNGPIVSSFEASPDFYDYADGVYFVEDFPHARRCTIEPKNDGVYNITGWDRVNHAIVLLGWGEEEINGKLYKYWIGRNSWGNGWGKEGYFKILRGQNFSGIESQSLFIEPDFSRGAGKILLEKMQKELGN
# Assay: primary screen, percent inhibition; read by cleavage of a fluorogenic dipeptide substrate; higher = more effect of the substance
# Parameters: species or system P. falciparum D10 trophozoite lysates; single well
# 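Also: 30 min substrate incubation versus DMSO and 10 µM JCP410 controls.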
row,SMILES,% Inhibition @ 10 uM
1,CC(C)C[C@H](NC(=O)c1ccc(-c2ccc(F)c(F)c2)cc1)C(=O)NCC#N,-6.46%
2,O=C(C1CCCO1)N1CCN(c2cccc(Cl)c2)CC1 (stereo not drawn),2.16%
3,COc1nc(F)c(F)c(Oc2ccc(C)cc2)c1F,-5.28%
4,N#CC1=C(N)Oc2cc(N)ccc2C1c1cc(Br)ccc1F (stereo not drawn),5.89%
5,CCOC(=O)N1CCN(CC(O)COc2ccccc2C(C)(C)C)CC1 (stereo not drawn),-5.35%
6,CCOc1ccc(CNc2ccccc2C)cc1OC,-0.62%
7,COc1ccc(F)cc1S(=O)(=O)N1CCc2ccccc2C1,-5%
8,CCOc1ccc2nc(NS(=O)(=O)c3ccc(NC(C)=O)cc3)sc2c1,0.583%
9,COc1ccc(Cc2nc(-c3ccc(C(F)(F)F)cc3)no2)cc1,-2.4%
10,Cc1ccc(-c2ccc(C3Nc4ccc5ccccc5c4C4=C3C(=O)CC(C)(C)C4)o2)cc1Cl (stereo not drawn),-0.833%
11,CCCNC(=O)Cn1nc(CC)n2c(cc3sc(CC)cc32)c1=O,-1.7%
12,O=C(CNS(=O)(=O)c1cccs1)N1CCC2(CC1)OCCO2,7.57%
13,O=[N+]([O-])c1ccc(C23CC4CC(CC(C4)C2)C3)cc1,-1.02%
14,COc1cc(/C=C/C(=O)Nc2nnc(C3CCCCC3)s2)cc(OC)c1OC,5.12%
15,CCCCc1nc(O)c(C#N)c2c1CSC(C)(C)C2,-5.63%
16,CCCN1CCC(N(CC)Cc2ccccc2)CC1,3.44%
17,O=C(COc1ccc(Cl)cc1Br)N1CCN(c2ccccc2)CC1,-1.38% and -3.26%
18,N#CC1=C(N)N(c2c(F)cccc2F)C2=C(C(=O)CCC2)C1c1ccc2c(c1)OCO2 (stereo not drawn),-6.59%
19,CC1CCN(C(=O)Cn2ncn3nc(-c4cccs4)cc3c2=O)CC1,-4.68%
20,Cc1ccc(S(=O)(=O)N(CC(=O)Nc2ccc3c(c2)OCO3)c2ccc(F)cc2)cc1,0.528%
21,COc1ccc(N2C(=O)CC(NCc3cccc(C(F)(F)F)c3)C2=O)cc1 (stereo not drawn),4.03%
22,CCOc1nc2c(c(=O)n(Cc3ccc(Cl)cc3)c(=O)n2C)n1C,-2.6%
23,CC(=O)Nc1cccc(/N=C/c2c(C)nn(-c3ccc(F)cc3)c2O)c1,1.37%
24,COc1ccc(C2=CC(c3ccccc3F)n3c(nc4ccccc43)N2)cc1 (stereo not drawn),4.86%
25,Cc1nc(O)c(C#N)c(C)c1CSCC(=O)Nc1ccccc1,3.92%
26,COc1ccc(CN2CCN(S(=O)(=O)c3ccc(Cl)cc3)CC2)c(OC)c1OC,-1.52%
27,COc1ccc(C2C(C#N)=C(N)N(c3ccc(F)cc3)C3=C2C(=O)CCC3)cc1CN1CCOCC1 (stereo not drawn),-4.49%
